Where “and” joins values, the source holds several entries; their conditions need not be identical. Identical values can stand only once.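 Cultured in 96-well plates, cells were exposed to test compound for 48 hours across five concentrations. At the GI50, growth is halved. TGI: concentration producing complete growth inhibition.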 Peptide text beside a SMILES is read from it. * marks the point of attachment. Boc = CC(C)(C)OC(=O)*

This note sets out measurements from PubChem BioAssay (NCI).

The experiment concerns NCI-H322M lung. The experiment is described as follows: inhibition of tumour cell growth, NCI panel, 48 h.

With `CC1=CC[C@@H]2C(C)(C)[C@@H](O)CC[C@@]2(C)[C@@H]1COc1ccc2ccc(=O)oc2c1`, the GI50 is 11 µM and the TGI was found to be 24 µM. Compound `CC(=O)Oc1ccc2c(c1)CC[C@@H]1C2[C@@H](O[N+](=O)[O-])C[C@@]2(C)C1CC[C@@H]2O` (stereo partly specified) returned a TGI of over 100 µM. Still for that read-out and setting: in the case of `COc1ccc(N=C/C=C/Nc2ccc(OC)cc2)cc1` it was 26 µM; in that of `N#CC(c1ccccc1)c1cccc2ccccc12` (stereo unspecified), over 100 µM; in that of `COC1C(O)=C2C(=O)OC(C)(O)/C=C/C=C\C=C/C=C/C(c3ccccc3)NC(=O)/C=C/C=C/C=C/C=C/C2(C)C1O` (stereo unspecified), 0.239 µM and 0.316 µM. Turning to `O=[N+]([O-])C(=C(NCc1ccccc1)NCc1ccccc1)C(Cl)=C(Cl)Cl`, the TGI is over 100 µM. Take `Clc1ccc(-c2nc(-c3ccc(Cl)cc3)[s+]s2)cc1`: the TGI was over 100 µM. On to `COC(=O)/C(=N/NC(C)(C)C)C(C(=O)C=C(C)C)C(=O)C(=O)Nc1ccc(Cl)cc1C` (stereo unspecified), for which the TGI was over 100 µM. For the compound `O=C(N/N=C/c1ccc(F)cc1)c1[nH]c2ccc(I)cc2c1-c1ccccc1`, the GI50 is 3.41 µM and the TGI is over 100 µM.

Take `CCOC(=O)/C(=C\c1ccc(CO)o1)P(=O)(OCC)OCC`: the TGI was over 100 µM.

On to `O=C1CC(O)c2c(Cl)sc(Cl)c21` (stereo unspecified), for which the TGI worked out at 34.7 µM.

`CCOC(=O)c1c2ccc(/C=C/C(=O)OC)ccc-2c(C(=O)OCC)c1N`: the TGI came to 8.53 µM. `COc1ccc(N=Cc2ccc(N(CCC#N)CCC#N)cc2)cc1`: the TGI is over 100 µM.

`CC(NC(=O)c1ccc(OP(=O)(OCC2=CC(=O)c3ccccc3C2=O)N(C)CCCCCl)cc1)c1ccc(OCC2CCCCC2)c(C(N)=O)c1` (stereo unspecified) came in with a TGI of 36.5 µM. Compound `COc1ccc2nc3c([N+](=O)[O-])ccc4c3c(c2c1)NCCN4C` registered a TGI of 10.2 µM.

`Nc1ncnc2c1ncn2C1OC(C(=O)O)C(O)C1O` (stereo unspecified): the TGI is over 100 µM. Consider `OCCCNCc1ccccn1`, for which the TGI is over 100 µM.

As for `O=C1C=C(c2cc(Br)c(O)c(Br)c2)/C(=C/c2cc(Br)c(O)c(Br)c2)O1`, the GI50 is 28.2 µM and the TGI was over 75 µM.

On to `OC1CCC(Oc2cccc3cnc(Nc4ccc5nc[nH]c5c4)nc23)CC1` (stereo unspecified), for which the GI50 was 0.227 µM and the TGI came out at 3.61 µM. Compound `COc1ccc(-c2cn3c(n2)sc2cc(C)ccc23)cc1` had a TGI of over 100 µM. On the same count and under the same terms, next, `O=C(O)c1nnsc1COCc1ccccc1`: over 100 µM. With `O=Nc1c2cccnc2n2nnc3ccc(Cl)cc3c12`, the GI50 was 12 µM and the TGI was 35.3 µM.

As to `NCCCCCCNc1cc(-c2cccc(OC(F)(F)F)c2)nc2ccc(N3CCCC3)cc12`, the GI50 was 1.64 µM and the TGI came out at 3.01 µM.

In turn, `Fc1cccc2nc(-c3ccccc3)cc(OCc3ccccc3)c12` gave a TGI of over 100 µM.

Regarding `COc1ccc(CN=CN/C(C#N)=C(\N)C#N)cc1OC`, the TGI is over 100 µM. On the same count and under the same terms, in the case of `COc1ccc([N+](=O)[O-])c2c(NCC(O)CO)ccnc12` (stereo unspecified) it was over 100 µM.

As to `CC(C)(C)C([O-])=C1C(=O)c2ccccc2C1=O.CC(C)(C)C([O-])=C1C(=O)c2ccccc2C1=O.CC[O-].CC[O-].[Ti+4]`, the GI50 is 27.1 µM and the TGI is over 100 µM. Regarding `CN(C)c1ccc(C(c2ccc(N(C)C)cc2)c2ccc([N+](=O)[O-])cc2)cc1`, the TGI is over 100 µM.

For the compound `CC(C)n1c(=O)c2nn3c(=O)n(C(C)C)c(=O)c3nn2c1=O`, the TGI was over 100 µM. Compound `Cc1nnc2c3c(-c4ccccc4)c(-c4ccccc4)oc3nc(N(C)C)n12` yielded a TGI of over 100 µM. Take `O=C(Nc1ccc(Br)cc1)c1cc(Br)cc(Br)c1O`: the GI50 is 3.2 µM and the TGI was 8.75 µM. As to `CCN(CC)C(=O)CCCCCCCCC1CO1` (stereo unspecified), the TGI was over 100 µM. Regarding `CC1(C)C(=O)/C(=C\c2ccco2)C[C@]2(C)[C@H]3CC=C4[C@@H]5C[C@](C)(C(=O)O)CC[C@]5(C)CC[C@@]4(C)[C@]3(C)CC[C@@H]12`, the GI50 was 10.8 µM and the TGI is 25.4 µM. `Cc1c2ncccc2c(C)c2c1[nH]c1ccccc12` had a TGI of 21 µM. In turn, `CCCCCCCCCCCCC(SCCNC(=O)CCNC(=O)C(O)C(C)(C)COP(=O)(O)OP(=O)(O)OCC1OC(n2cnc3c(N)ncnc32)C(O)C1OP(=O)(O)O)C(=O)NCC(N)=O` (stereo unspecified) came in with a TGI of over 100 µM.

As for `CCCCCCCCCCCC(=O)C1=C(O)C(O)CCC1=O` (stereo unspecified), the TGI came out at 74.8 µM. Same read-out and setting: next, `O=C(c1ccco1)N(C(=S)N1CCN(c2ccccc2)CC1)c1ccccc1`: over 100 µM. Regarding `CC/C=C\C[C@H](O)C/C=C1/C(=O)C=C[C@@H]1C/C=C\CCCC(N)=O`, the GI50 is 2.61 µM and the TGI was 11.4 µM. With `Cc1nn(-c2ccccc2)c(C)c1/C=N/NC(=O)c1sc(=S)n(-c2ccccc2)c1N`, the TGI came out at 22.1 µM. In the case of `C=C1C(=O)O[C@H]2[C@H]1CC/C(COC(=O)c1ccc(C(=O)O)s1)=C\CC[C@@]1(C)O[C@@H]21`, the GI50 is 5.72 µM and the TGI worked out at 18.3 µM.

Compound `Cc1ccc(-n2c(C)nc3c2C(=O)c2ccccc2C3=O)cc1` registered a TGI of over 100 µM. Still for that read-out and setting: next, `CN(C)CCNC(=O)c1cccc(CO)c1[N+](=O)[O-]`: over 100 µM; `O=C1/C(=C/c2cccs2)N=C(c2ccccc2)N1C1Nc2cc3c(cc2S1)NC(N1C(=O)/C(=C/c2cccs2)N=C1c1ccccc1)S3` (stereo unspecified): over 100 µM; `CN(C)CCCOC(=O)C(O)(Cc1ccccc1)C1CC1` (stereo unspecified): over 100 µM.

`CCN(CC)CC(C)Nc1ccc(C)c2sc3ccccc3c(=O)c12` (stereo unspecified): the GI50 was 9.49 µM and the TGI is 23.2 µM.

`ClCCn1cnc2c(SCc3ccccc3)ncnc21`: the GI50 was 1.78 µM and the TGI turned out to be 22.2 µM. In turn, `Cc1ccc2[nH]c(=O)c(-c3cnc(=O)[nH]n3)c(O)c2c1` showed a TGI of over 100 µM. `N#CC1C(N)=NNC1c1ccc(-c2ccc(-c3nc4ccccc4o3)cc2)o1` (stereo unspecified): the GI50 was 19.1 µM and the TGI was 69.6 µM. Regarding `O=[N+]([O-])/C=C\c1ccc2c(c1)OCO2`, the GI50 was 10.6 µM and the TGI was 23.8 µM. On to `C=C1C(O)C2C(=C(CC(C)C)C13CC3)C(=O)C(C)(C)C2OC` (stereo unspecified), for which the GI50 is over 100 µM and the TGI was over 100 µM.

As to `Cc1c2cc[n+](C)cc2c(C)c2c1[nH]c1ccccc12`, the TGI is 10.7 µM and 12.4 µM. The same measure, in the same setting: next, `COc1cccc(/C=C/C2=NN(c3cccc(S(=O)(=O)O)c3)C3(C2)SCC(=O)N3c2nc3ccccc3s2)c1` (stereo unspecified): over 100 µM. Consider `Cc1ccc2c(c1)sc(-c1ccc(N(C)C)cc1)[n+]2C`, for which the GI50 was 2.18 µM and the TGI is 17.4 µM.

Take `CC(NC(=O)C(NC(=O)OC(C)(C)C)C(C)C)C(=O)NCC(=O)O` (stereo not drawn) (Boc-Val-Ala-Gly-OH; configuration not given here): the TGI was over 100 µM. As to `Cc1ccc(S(=O)(=O)NCCN2c3nc4ccccc4cc3Sc3cc4ccccc4nc32)cc1`, the GI50 is over 100 µM and the TGI is over 100 µM. In the case of `O=C(/C=C/c1ccc([N+](=O)[O-])o1)NNC(=O)c1cc2ccccc2cc1O`, the GI50 is 4.45 µM and the TGI is over 100 µM. `c1ccc(N=NNNc2ccc(-c3nc4ccccc4[nH]3)cc2)cc1` yielded a TGI of over 100 µM. Same read-out and setting: in the case of `O=c1oc2c3ccc4ccccc4c3n(Cc3nc4ccccc4[nH]3)c2c2ccccc12` it was over 100 µM.

For `CC(=O)C(=C(I)I)c1ccccc1`, the TGI worked out at 32.5 µM. Same read-out and setting: in the case of `CN(C)Cc1cc(C(=O)O)cc(CN(C)C)c1O` it was over 100 µM; in that of `COc1ccc(/C=[N+](\[O-])[C@H](COCc2ccccc2)c2ccccc2)cc1`, over 100 µM.

On to `COC(=O)/C=C1/OC(c2ccccc2)=C(Cl)C1=O`, for which the TGI was over 66.3 µM. As to `CC1=C(C#N)S(=O)(=O)c2c(oc(C)c2C)N1`, the TGI is over 100 µM. `OCC1OC(N2C=C(c3nc4ccccc4s3)C3C=CC=CC32)C(O)C1O` (stereo unspecified): the GI50 was 10.8 µM and the TGI stood at 28.8 µM. Turning to `CCCCc1cc(O)ccc1O`, the GI50 is over 100 µM and the TGI was over 100 µM.

For `Nc1ccc2c(c1)[O][Sn]([c]1ccccc1)([c]1ccccc1)[O]C2=O`, the GI50 was 17.2 µM and the TGI was 31 µM.

Compound `COc1cc2[nH]c(-c3ccccc3)cc(=O)c2cc1OC` had a TGI of over 100 µM. Take `CSc1n[n+](C)cc(N)c1N`: the TGI is over 100 µM. `CCCc1ccc(N=Cc2cc(OC)c(OC)c(OC)c2)cc1` showed a TGI of over 100 µM.

For the compound `CN(C)c1ccc(/C=C2\N=C(c3ccccc3)N(c3nc4c(Cl)cc(Cl)cc4s3)C2=O)cc1`, the TGI is over 100 µM.

Compound `CC(SC1=CC(=O)c2c(O)ccc(O)c2C1=O)C(=O)O` (stereo unspecified) gave a TGI of over 100 µM. On to `CCc1ccc(C2=C(O)C(=O)C(c3ccc(CC)cc3)=C(O)C2=O)cc1`, for which the GI50 was 2.42 µM and the TGI was 9.61 µM. As to `CN(C)CN1C(=O)S/C(=C2\C(=O)N(CN(C)C)c3ccccc32)C1=O`, the TGI is over 100 µM.

The compound `c1ccc(COc2ccc3[nH]c4c(ncc5[nH]c6ccccc6c54)c3c2)cc1` displayed a TGI of 44 µM.

For the compound `COc1ccc(-c2cn3ccnc3c(-c3ccc4ncn(C5CCCCC5)c4c3)n2)cc1`, the GI50 is over 100 µM and the TGI was over 100 µM. `O=C(O)C(Cc1ccc(O)c([N+](=O)[O-])c1)N1C(=O)c2ccccc2C1=O` (stereo unspecified) showed a TGI of over 100 µM.

`CN(C)CCNc1cccc2sc3ccc(O)cc3c(=O)c12`: the GI50 is 3.96 µM and the TGI stood at 16.7 µM.

`c1c[nH]c(Cc2ncc(Cc3cnc[nH]3)[nH]2)n1` registered a TGI of over 100 µM. The compound `CCCCCCCCOCC1S(=O)(=O)OCCOS1(=O)=O` returned a TGI of over 100 µM.

In turn, `O=C1c2cccc3cc([N+](=O)[O-])cc(c23)C(=O)N1CCCN1CCN(CCCN2C(=O)c3cccc4cc([N+](=O)[O-])cc(c34)C2=O)CC1` showed a TGI of 23.9 µM.

`Brc1ccc2c(c1)C1=C(CO2)Cc2ccccc2O1` registered a TGI of 31.9 µM. As for `NS(=O)(=O)c1ccc(/C=C/c2cccc(O)c2)cc1`, the TGI was over 100 µM. In the case of `Cn1cc(NC(=O)c2cc(NC(=O)CCCCCC(=O)Nc3cc(C(=O)Nc4cc(C(=O)NCCC(=N)N)n(C)c4)n(C)c3)cn2C)cc1C(=O)NCCC(=N)N`, the TGI was over 100 µM. Compound `O=C1NC(N2CCOCC2)=N/C1=C\c1ccccc1O` gave a TGI of over 100 µM. Turning to `COc1cccc(C2c3cc4c(cc3OC(N3CCOCC3)C2C)OCO4)c1O` (stereo unspecified), the TGI was over 100 µM. `OC1CCC(C2C3CCCCC3C3CCCCC3C2C2CCC(O)CC2)CC1` (stereo unspecified) yielded a TGI of 19.7 µM.
